Measured values published in publication PMC4336329 (PLoS ONE, 2015).
Screen size: about 310,000 compounds; about 14,000 (4.5%) showed an effect of 50% or more. Effects have a minus sign here. Some of the results follow.

The molecules below were run against human ether-à-go-go-related gene (hERG) potassium channel (human, UniProt Q12809) (assay: primary screen, population patch clamp on CHO cells stably expressing hERG).
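Further: peak tail current of the secondary pulse compared with the same well before compound.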

Chain of human ether-à-go-go-related gene (hERG) potassium channel (Q12809 whole entry, looked up): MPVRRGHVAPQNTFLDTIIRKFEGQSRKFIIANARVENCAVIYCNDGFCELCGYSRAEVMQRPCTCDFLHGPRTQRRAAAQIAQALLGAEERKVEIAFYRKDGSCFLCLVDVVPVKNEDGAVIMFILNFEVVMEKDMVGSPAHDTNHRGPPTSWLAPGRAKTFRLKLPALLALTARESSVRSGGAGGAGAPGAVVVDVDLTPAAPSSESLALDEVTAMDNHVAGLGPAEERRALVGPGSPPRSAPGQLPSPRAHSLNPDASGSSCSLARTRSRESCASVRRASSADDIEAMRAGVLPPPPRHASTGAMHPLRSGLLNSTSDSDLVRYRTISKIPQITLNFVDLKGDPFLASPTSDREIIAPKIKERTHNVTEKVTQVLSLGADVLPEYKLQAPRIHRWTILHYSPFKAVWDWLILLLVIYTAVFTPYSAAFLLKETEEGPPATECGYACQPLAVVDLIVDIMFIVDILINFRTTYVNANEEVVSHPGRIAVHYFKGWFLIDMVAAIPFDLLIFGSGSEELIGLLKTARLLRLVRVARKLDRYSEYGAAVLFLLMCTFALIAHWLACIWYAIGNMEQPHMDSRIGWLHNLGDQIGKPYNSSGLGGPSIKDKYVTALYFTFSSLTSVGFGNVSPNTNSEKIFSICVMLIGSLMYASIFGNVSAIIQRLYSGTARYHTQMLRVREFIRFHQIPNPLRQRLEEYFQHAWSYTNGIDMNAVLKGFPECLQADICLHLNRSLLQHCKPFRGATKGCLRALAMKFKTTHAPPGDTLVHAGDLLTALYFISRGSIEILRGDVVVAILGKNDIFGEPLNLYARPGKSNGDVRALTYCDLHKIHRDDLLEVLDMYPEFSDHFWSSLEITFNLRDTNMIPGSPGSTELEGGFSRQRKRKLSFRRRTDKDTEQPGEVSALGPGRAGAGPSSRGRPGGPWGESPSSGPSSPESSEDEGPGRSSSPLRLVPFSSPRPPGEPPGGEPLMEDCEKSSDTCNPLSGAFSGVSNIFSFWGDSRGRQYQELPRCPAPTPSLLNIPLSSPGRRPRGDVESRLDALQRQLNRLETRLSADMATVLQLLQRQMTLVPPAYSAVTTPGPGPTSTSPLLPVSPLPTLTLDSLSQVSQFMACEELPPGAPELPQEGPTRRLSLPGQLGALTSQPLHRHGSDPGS

SMILES | hERG current change (%, negative = inhibition) at 10uM
Clc1ccccc1-c1nnc(-c2cccs2)o1 | 7.75%
CNC(=O)C12N=CNN=C1N(C)C(=O)N2C (centres unmarked) | 16.2%
CCCNC(=O)N1CCC(C(=O)c2cccc(F)c2)CC1 | -10.9%
CCCCN(C(=O)/C=C/c1ccc(OC)cc1)C1CCS(=O)(=O)C1 (centres unmarked) | -41.5%
CCC(C)(C)NC(=O)C(c1ccc(OC)cc1)N(C(=O)CCC(=O)Nc1cc(C)on1)c1ccc(OC)cc1OC (centres unmarked) | -7.89%
Cc1cc(Br)ccc1NC(=O)CN1C(=S)NC(C)(C)CC1C (centres unmarked) | 4.43%
Cl.N=C1C(c2nc(-c3ccc(Cl)cc3)cs2)=C(O)CN1CCCN1CCOCC1 | -30.4%
CC(=O)N1CCOc2ccc(S(=O)(=O)N(C)c3ccc(C)cc3)cc21 | -13.2%
CC1CCN(C(=O)CSc2nnc(Cc3cccn3C)n2CCc2ccccc2)CC1 | -18.5%
Cc1ccccc1-n1nc2c(c1NC(=O)CCCl)CSC2 | -0.405%
COc1cc(C(=O)NC23CC4CC(CC(C4)C2)C3)cc(OC)c1OC | 16.1%
CCOC(=O)CSCc1csc(CC(=O)Nc2ccccc2C)n1 | 13.5%
O=C(Nc1cccc(S(=O)(=O)N2CCCCC2)c1)c1ccc2c(=O)n3c(nc2c1)CCCCC3 | -64.5%
COc1ccc(NC(=S)NCCNC(C)=O)cc1 | 26.8%
Nc1nc(SCc2ccc3c(c2)OCO3)n[nH]1 | 9.57%
Fc1ccc(-c2nc3ccncc3[nH]2)cc1 | -0.189%
O=C(COc1cccnc1[N+](=O)[O-])NCCc1ccc(Cl)cc1Cl | -18.4%
O=C(Nc1ccc2nc3n(c(=O)c2c1)CCCC3)c1ccccc1F | -38.6%
Cc1ccc(NC(=O)CN2C(=O)S/C(=C\c3cccn3-c3cccc(C(=O)O)c3)C2=O)c(C)c1 | 16.3%
FC(F)Oc1ccc(NC(=S)NCc2nc3ccccc3[nH]2)cc1 | -79.2%
CC(C)Cc1ccc(CN2CCC(n3nccc3NC(=O)C3CCCC3)CC2)cc1 | -72.4%
CCCCn1c(N)c(N(CC(C)C)C(=O)CC2CCCCC2)c(=O)[nH]c1=O | -9.22%

SMILES | hERG current change (%, negative = inhibition) at 10uM
O=C(O)C1Cc2[nH]cnc2C(c2ccc(F)cc2)N1 (centres unmarked) | 4.22%
O=C(COC(=O)c1ccccc1)Nc1cccc(S(=O)(=O)N2CCOCC2)c1 | -26.5%
Cc1nnc(SCc2ccccc2)n(N)c1=O | -4.28%
CN(C)CCCNC(=O)C1CCNCC1 | 14%
Fc1ccc(Oc2nnnn2-c2ccccc2)cc1 | 44.8%
CN1CC2([N+](=O)[O-])CC=C(OCCO)C([N+](=O)[O-])(C1)C2 (centres unmarked) | 16.3%
CCCCN(C(=O)CSCC(=O)Nc1cccc(C)c1)c1c(N)n(Cc2ccccc2)c(=O)[nH]c1=O | -10.9%
O=c1[nH]c(/C=C/c2ccc(Cl)cc2Cl)c([N+](=O)[O-])c(=O)[nH]1 | 8.89%
COc1ccc(NC(=O)CC2Nc3ccccc3NC2=O)c([N+](=O)[O-])c1 (centres unmarked) | -6.07%
O=c1c2cc(NC(=S)NCc3cccnc3)ccc2nc2n1CCCCC2 | -10.1%
CCCN(CC(=O)Nc1ccccc1C)C(=O)/C=C/c1cccs1 | -13.6%
Cc1ccc(-c2nn3c(-c4ccco4)nnc3c3ccccc23)cc1S(=O)(=O)NCC1CCCO1 (centres unmarked) | -16%
Cn1ccc(C(=O)N/N=C/c2cccnc2)n1 | 28.6%
CCC(C)NC(=O)CSc1nc2ccccc2c(=O)n1CCCC(=O)NCC1CCCO1 (centres unmarked) | -2.9%
COCCOC(=O)c1c(C)oc2ccc(NS(=O)(=O)c3ccc(C(=O)O)cc3)cc12 | 10.6%
COc1cccc(OCC(O)CNC(=O)c2oc3c(C)c(C)ccc3c2C)c1 (centres unmarked) | 7.14%
Cc1cccc(N(CC(=O)N/N=C/c2ccccc2C(=O)O)S(C)(=O)=O)c1C | -28.9%
COc1ccc(NC(=S)N/N=C2/CCCc3c(C)cc(C)cc32)cc1 | 3.99%
CCCCOc1ccc(N(CC(=O)NC2CCCCC2)C(=O)CCC(=O)Nc2ccccn2)cc1 | 10.5%
COc1ccc2[nH]c3c(=O)n(N)c(=O)[nH]c3c2c1 | 10.8%
CCOc1ncccc1C(=O)OCC(=O)c1ccc[nH]1 | 11.3%
COc1ccc(CN2CCCC(C(=O)c3cccc(Cl)c3)C2)cc1 (centres unmarked) | -57.4%
